ChEMBL document CHEMBL4888484, “Replenishing the malaria drug discovery pipeline: Screening and hit evaluation of the MMV Hit Generation Library 1 (HGL1) against asexual blood stage Plasmodium falciparum ,using a nano luciferase reporter read-out” (2022)
The campaign covered roughly 150,000 compounds. About 540 (0.36%) showed an effect of 50% or more. This is one part of the list.

Each molecule was assayed on Plasmodium falciparum (assay: Primary screen in NF54 nanoGlo assay, in single point, at 2uM, 72h; a lower Z score goes with more inhibition). Settings: timepoint 72 hour.
Type: functional, Erythrocyte
`Cc1cc(CS(=O)(=O)NC2CC(O)C23CCC3)no1` (stereo not drawn) was tested, and the “% Inhibition” value was -9% and the Z score was 0.98.
In the case of `CN(C(=O)C1CCCCC1)C1CCCC1`, the “% Inhibition” value is reported as 0% and the Z score is reported as 0.05.
In the case of `CCCc1cc(C(=O)N2CC[C@H](c3sccc3C)[C@@H](O)C2)no1`, the “% Inhibition” value is reported as -12% and the Z score is reported as 1.07.
With `CCc1cc([C@@H]2CCCN2C(=O)Nc2ccc(Br)cc2F)on1` the “% Inhibition” value was -8% and the Z score was 1.07.
For `Cc1cccc(OCc2cncs2)n1`, the “% Inhibition” value was -1% and the Z score was 0.17.
In the case of `CCC(CC)[C@H](NC(=O)c1nnn(C2CCNCC2)c1C)c1ccccc1`, the “% Inhibition” value is reported as 12% and the Z score is reported as -1.44.
With `CCCOC1CCCN(C(=O)[C@@H](N)CC(C)C)CC1` (stereo partly drawn) the “% Inhibition” value was -6% and the Z score was 0.88.
With `CC1(C)C[C@H](O)c2c(OCc3nccs3)cccc2O1` the “% Inhibition” value was -8% and the Z score was 0.98.
`O=C(O)C1CCC(CNC(=O)[C@H](Cc2c[nH]c3ccccc23)n2c(=O)[nH]c3ccccc3c2=O)CC1` (stereo partly drawn) was tested, and the “% Inhibition” value was 3% and the Z score was -0.51.
`CCO[C@@H](C)C(=O)N(C)CCCn1cccn1` was tested, and the “% Inhibition” value was -4% and the Z score was 0.82.
`CN(Cc1cccs1)C(=O)[C@@H]1CCCN1C(=O)c1cccs1` was tested, and the “% Inhibition” value was -7% and the Z score was 0.89.
For `O=C(NCc1ccnc(C(F)(F)F)c1)C1(C2CCC2)CCC1`, the “% Inhibition” value was -10% and the Z score was 1.67.
In the case of `Cc1nn2c(N3CCC(Cc4ccccc4)CC3)cc(C(C)C)nc2c1-c1ccccc1`, the “% Inhibition” value is reported as -7% and the Z score is reported as 1.3.
In the case of `c1cc2ncc(-c3nc([C@@H]4CCCCO4)no3)cc2s1`, the “% Inhibition” value is reported as -6% and the Z score is reported as 1.09.
In the case of `CN(C)S(=O)(=O)c1ccc2c(c1)nnn2CCCC(=O)Nc1ccccc1Cl`, the “% Inhibition” value is reported as -13% and the Z score is reported as 1.88.
For `COc1ccc(NC(=O)C2CCN(c3nnc(-c4ccc(C)cc4)o3)CC2)c(OC)c1`, the “% Inhibition” value was 7% and the Z score was -1.05.
With `CC(C)c1nnc([C@H](C)NC(=O)c2ccc(=O)n(C)n2)o1` the “% Inhibition” value was -5% and the Z score was 0.71.
With `Cc1n[nH]c(C)c1CNCc1cnc(C(C)C)nc1` the “% Inhibition” value was -2% and the Z score was 0.32.
With `C[C@@H]1CN(C[C@@H]2CN(C(=O)c3ccsc3)C[C@@H]2CO)C[C@H](C)O1` the “% Inhibition” value was -14% and the Z score was 2.47.
In the case of `O=C1c2ccccc2C(=O)N1CCN1CCOC2CCCCC21` (stereo not drawn), the “% Inhibition” value is reported as -6% and the Z score is reported as 0.96.
In the case of `Cc1nn(C)c(C)c1Nc1nc2c(s1)c(C)nn2C`, the “% Inhibition” value is reported as -10% and the Z score is reported as 1.28.
For `CC[C@H]1CCCCN1c1ccc2nnnn2n1`, the “% Inhibition” value was 35% and the Z score was -4.72.
In the case of `CC(C)C[C@H](O)c1nc(C(C)(C)C)nn1CCO`, the “% Inhibition” value is reported as 2% and the Z score is reported as -0.31.
For `C#CCN(C)S(=O)(=O)c1cc(OC)ccc1Br`, the “% Inhibition” value was -6% and the Z score was 0.82.
With `CCc1nc(CN[C@@H](C)c2ccc(N3CCCC3=O)cc2)cs1` the “% Inhibition” value was 13% and the Z score was -1.79.
For `O=C([C@@H]1CCCO1)N1CCN(c2ccc(-n3cncn3)nn2)CC1`, the “% Inhibition” value was 7% and the Z score was -0.9.
For `CCC=C(C)C(=O)N(C)Cc1ccco1`, the “% Inhibition” value was -10% and the Z score was 1.95.
`CCN1CCN(C2CCN(c3ncc(F)c(OC)n3)CC2)CC1` was tested, and the “% Inhibition” value was 51% and the Z score was -7.32.
In the case of `O=C(Cc1ccsc1)Nc1cc(C2CCCCC2)[nH]n1`, the “% Inhibition” value is reported as -4% and the Z score is reported as 0.57.
For `COCn1nccc1S(=O)(=O)NC(C)(C)C(=O)OC`, the “% Inhibition” value was 0% and the Z score was 0.04.
With `CCOc1cccc(CCc2nc(C3CCNCC3)no2)c1` the “% Inhibition” value was -1% and the Z score was 0.14.
In the case of `O=S(=O)(CC1CCCO1)N1CCOC(c2nccs2)C1` (stereo not drawn), the “% Inhibition” value is reported as -10% and the Z score is reported as 1.11.
For `Clc1cc(Cn2nnc(C3CC3)n2)cc2c1OCCO2`, the “% Inhibition” value was -8% and the Z score was 1.16.
`COc1ccc(-n2nc(N3CCN(C(=O)c4cccc(OC)c4)CC3)ccc2=O)cc1` was tested, and the “% Inhibition” value was 9% and the Z score was -1.1.
In the case of `CCc1cc(NC(=O)c2ccco2)nc(C)n1`, the “% Inhibition” value is reported as -2% and the Z score is reported as 0.24.
With `CCN1CC(=O)N[C@H]2CN(C(=O)c3ccc(N(C)C)nc3)CC[C@@H]2OCc2cccc(c2)Oc2cccc(c2)CC1=O` the “% Inhibition” value was 12% and the Z score was -1.64.
For `C[C@@H](CNc1nnc(C(C)(C)C)o1)Oc1cccnc1`, the “% Inhibition” value was -14% and the Z score was 1.8.
With `COc1ccccc1C1(CNC(=O)N2CCC[C@H]2c2cnn(C)c2)CCC1` the “% Inhibition” value was 2% and the Z score was -0.26.
In the case of `CC1(CNC(C(N)=O)c2cccc(Br)c2)CCCO1` (stereo not drawn), the “% Inhibition” value is reported as -13% and the Z score is reported as 1.5.
With `COc1ccccc1C(C)CC(=O)C(C#N)C(=O)NC1CCCC1` (stereo not drawn) the “% Inhibition” value was -6% and the Z score was 0.58.
For `CO[C@@H]1C[C@@H](c2ncn[nH]2)N(Cc2ccc(-n3ccnc3)cc2C)C1`, the “% Inhibition” value was 4% and the Z score was -0.56.
With `Cc1ccc(O)c(NC(=O)c2cnn3c2C[C@@H](C)CC3)n1` the “% Inhibition” value was -16% and the Z score was 2.42.
With `COc1ccc(F)c(CN(C)CCc2ccncc2)c1` the “% Inhibition” value was 13% and the Z score was -1.6.
In the case of `Cc1nc(CN2CCOc3cc(Br)c(Cl)cc32)oc1C`, the “% Inhibition” value is reported as -6% and the Z score is reported as 0.83.
